Screen size: about 45,000 compounds; about 65 (0.1%) were called active. Calls come from the whole dose curve; as a rule, active = well fitted activation curve with a large enough effect; inconclusive = small, poorly fitted or top-dose-only effect; inactive = no such curve, though single readings can be large or run the other way. Some of the results follow.

This experiment has as its target Galactocerebrosidase (Homo sapiens) (UniProt P54803). As to the kind of experiment: A Novel Cell-Based Assay to Identify Small Molecules for B -Galactocerebrosidase. Note: 0% is about no effect; nearly all actives have a fitted effect of over 65% in size. As to conditions: 145M-Twi-hGALC-G270D cells (Twitcher mouse brain line with human GALC G270D), HMU-beta-Gal fluorescence, 48 h; series mostly up to 57.5 µM; activation: at the top concentration. In short, it runs like this: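 Fluorogenic HMU-b-Gal hydrolysis (0.1 mM final, pH 5.2 citrate-phosphate with 1 mg/mL sodium taurocholate; carbonate stop buffer) measures mutant GALC activity after compound treatment of live 145M-Twi Twitcher brain cells stably carrying human GALC-G270D, with wild-type GALC line alongside; activation sought.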
Sequence of UniProt P54803 (P54803 whole entry, looked up): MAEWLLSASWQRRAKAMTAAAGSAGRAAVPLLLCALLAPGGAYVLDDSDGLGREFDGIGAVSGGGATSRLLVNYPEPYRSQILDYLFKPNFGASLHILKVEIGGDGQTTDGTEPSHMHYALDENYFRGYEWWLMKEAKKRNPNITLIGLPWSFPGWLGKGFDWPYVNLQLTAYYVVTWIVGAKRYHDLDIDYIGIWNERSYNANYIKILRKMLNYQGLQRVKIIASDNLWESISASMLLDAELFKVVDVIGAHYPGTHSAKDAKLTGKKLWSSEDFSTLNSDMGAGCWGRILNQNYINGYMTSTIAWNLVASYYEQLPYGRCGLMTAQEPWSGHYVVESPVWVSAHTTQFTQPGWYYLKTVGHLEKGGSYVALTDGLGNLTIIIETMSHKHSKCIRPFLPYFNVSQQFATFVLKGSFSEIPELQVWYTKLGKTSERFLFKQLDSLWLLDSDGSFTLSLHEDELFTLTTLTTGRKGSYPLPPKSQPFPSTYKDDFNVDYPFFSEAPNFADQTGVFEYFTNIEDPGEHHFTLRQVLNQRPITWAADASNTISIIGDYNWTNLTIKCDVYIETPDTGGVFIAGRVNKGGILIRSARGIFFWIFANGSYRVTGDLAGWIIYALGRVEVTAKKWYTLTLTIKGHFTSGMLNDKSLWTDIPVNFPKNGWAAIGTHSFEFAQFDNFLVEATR
With `COc1ccc(C2C(=O)N(C3CCCCC3)CC(=O)N2C2CCCCC2)cc1` (centres undefined), the “activation” value was inactive: -10.3%. In the case of `CC1CCCCN1CCCNC(=O)Cn1ncc2c3ccccc3n(Cc3ccccc3F)c2c1=O` (centres undefined), the “activation” value was inactive: -6.23%. Under `COc1cc(Cl)c(NS(=O)(=O)c2ccc(-c3coc(C)n3)cc2)c(OC)c1` stands inactive: -38.5%. Under `Cc1ccc(-c2cc(C(F)(F)F)c(C#N)c(SCC(=O)Nc3ccccc3F)n2)cc1` stands inactive: -24%. Under `CCN(c1ncnc2c1cnn2-c1cccc(Cl)c1)C1CCCCC1` stands inactive: -13.8%; under `Cc1ccc(-n2c(=O)c3ccccc3n(CC(=O)Nc3cccc(C(F)(F)F)c3)c2=O)cc1`, inactive: -5.11%; under `Cc1cccc(N2CCN(C(=O)c3nn(C)c4c3CS(=O)(=O)c3ccccc3-4)CC2C)c1` (centres undefined), inactive: -12.3%.

In the case of `CCN(Cc1ccccc1)C(=O)C(CC(C)C)NS(=O)(=O)c1ccc2c(c1)CCN2C(C)=O` (centres undefined), the “activation” value was inactive: -0.904%. Under `O=C(Nc1ccc2nc(SCC(=O)N3CCOCC3)sc2c1)c1ccc(Cl)cc1` stands inactive: -12.6%. To `O=C(c1ccccc1)N1CCCCC1CCN1CCCCC1` (centres undefined) belongs inactive: -11.7%; to `Cc1ccc(C)c(Nc2nn3c(=O)c4ccc(C(=O)NCc5cccs5)cc4nc3s2)c1`, inactive: -12.7%; to `COc1cccc(N2CCN(c3ncnc4onc(-c5ccc(Cl)cc5)c34)CC2)c1`, inactive: -26.2%. Under `CN(C1CCCCC1)S(=O)(=O)c1ccc2c(c1)c(=O)c(C(=O)NCc1ccc(Cl)cc1)cn2C` stands inactive: -12.9%; under `O=C(CN1C(=O)CC(c2ccc(F)cc2)=Nc2ccccc21)NCc1ccccc1Cl`, inactive: -15.4%.

In the case of `O=C(Cn1c(=O)n(-c2ccccc2)c(=O)c2sc3ccccc3c21)NC1CCCC1`, the “activation” value is inactive: -8.33%.

In the case of `N#C/C(=C\c1ccc(Cl)cc1)c1nc(-c2cc3c(ccc4ccccc43)oc2=O)cs1`, the “activation” value is inactive: -2.3%. Under `Cc1ccc(OCC(=O)Nc2ccc(S(=O)(=O)N(Cc3ccccc3)c3ccccc3)cc2)cc1` stands inactive: -37.9%; under `CCCCn1cc(S(=O)(=O)c2ccc(Cl)cc2)c(=O)c2cc(F)c(N3CCCCC3)cc21`, inactive: 0.14%.

As to `Cn1c(SCc2ccc(F)cc2)nc2ccc(C(=O)NCc3ccccc3)cc21`, the “activation” value is inactive: -24.6%.

On to `Cc1cc(C)c2oc(C(=O)Nc3c(C(=O)Nc4ccccc4)oc4ccccc34)cc(=O)c2c1`, for which the “activation” value was inactive: -4.48%. To `O=C(C1CCN(c2nc3ccccc3[nH]2)CC1)N1CCN(c2cccc(Cl)c2)CC1` belongs inactive: -19.5%; to `Cc1cc(C(C)(C)C)c(O)c(C)c1CC1=NCCN1`, inactive: -12.4%; to `CSC1=NC2(CCN(C(=O)NC3CCCCC3)CC2)N=C1c1ccc(C(C)(C)C)cc1`, inactive: -11.4%. Consider `COc1cccc(N2C(=O)CSC23C(=O)N(CC(=O)NCc2ccc(C)cc2)c2ccccc23)c1` (centres undefined), for which the “activation” value is inactive: -22.4%. To `NC(Cc1ccc(Cl)cc1)C(=O)O` (centres undefined) belongs inactive: -16.8% [at 0.46 µM]; to `CCc1ccc2occ(CC(=O)Nc3sc4c(c3C(=O)OC)CCC4)c2c1`, inactive: -14.9%; to `Cc1nc2ccc(S(=O)(=O)NC(C(=O)NCc3ccc(Cl)cc3)C(C)C)cc2s1` (centres undefined), inactive: 7.69%. To `CCOC(=O)c1c(-c2ccc(OC)c(OC)c2)csc1NC(=O)c1ccc(F)cc1` belongs inactive: -12.4%. Regarding `Cc1cccc(C(=O)Nc2ccccc2C(=O)OCc2cc(=O)n3nc(C4CC4)sc3n2)c1`, the “activation” value was inactive: -17.1%. Turning to `CC(C)c1ccc(NC(=O)C2CCCN(S(=O)(=O)c3ccc4[nH]c(=O)ccc4c3)C2)cc1` (centres undefined), the “activation” value was inactive: -15.6%.

On to `CCc1ccc(Cn2nnc(C(=O)Nc3ccc(C)cc3)c2N)cc1`, for which the “activation” value is inactive: 3.43%. On to `CN(C)CCCN1c2ccccc2Sc2ccccc21`, for which the “activation” value is inactive: -11.9%. To `Cc1ccc(Nc2c(-c3ccc(N4CCOCC4)cc3)nc3ncccn23)cc1C` belongs inactive: -14.2%. Turning to `COc1cc(NC(=O)Cn2cnc3sc(C)c(S(=O)(=O)N4CCN(C)CC4)c3c2=O)cc(OC)c1OC`, the “activation” value was inactive: -8.6%. Under `CCOC(=O)c1ccc2c(c1)N(CC(=O)Nc1ccc(CC)cc1)C(=O)c1ccccc1S2` stands inactive: -25.5%.

`COc1cccc(CNCCSc2nnnn2C)c1OCc1ccc(Cl)cc1`: the “activation” value is inactive: 17.5%.

`CCCN(CCC)CCCNC(=O)c1cn(CC)c2ccc(S(=O)(=O)N3CCc4ccccc4C3)cc2c1=O`: the “activation” value was inactive: -3.54%.

For the molecule `O=C(CSc1oc(-c2ccco2)nc1S(=O)(=O)c1ccccc1)c1ccc(Cl)cc1`, the “activation” value is inactive: -25.8%. Take `CCN(c1ccc(C)cc1C)S(=O)(=O)c1nnc(NC(=O)c2ccccc2OC)s1`: the “activation” value was inactive: -16.2%. Turning to `CCOC(=O)c1oc2ccc(S(=O)(=O)n3nc(-c4cc(OCC)c(OCC)c(OCC)c4)cc3N)cc2c1C`, the “activation” value is inactive: -22.5%. For the molecule `CCOC(=O)c1ccc(NC(=O)CC2C(=O)N(c3ccccc3)C(=O)N2C2CCCCC2)cc1` (centres undefined), the “activation” value is inactive: -18.5%. Under `CCOc1cccc(C(=O)Nc2ccc(NC(=O)c3ccc(Br)cc3)cc2)c1` stands inactive: -10.5%; under `CCCc1cnc2c(c1SCC(=O)Nc1cccc(C)c1C)c(=O)n(C)c(=O)n2C`, inactive: -12.2%; under `CCOc1ccc(-c2nonc2NC(=O)COc2ccccc2)cc1`, inactive: -10.5%. Under `CCc1ccc(N2CCn3c2nc2c3c(=O)n(CCCc3ccccc3)c(=O)n2C)cc1` stands inactive: -9.11%; under `CCOC(=O)c1ccc(NC(=O)c2c(NCc3cc(OC)c(OC)cc3OC)sc3c2CCCC3)cc1`, inactive: -15.3%; under `CCN1CCN(c2cc3c(cc2F)c(=O)c(S(=O)(=O)c2cc(C)cc(C)c2)cn3CC)CC1`, inactive: -5.67%. Under `COc1ccc(-n2cc(-c3ccccc3)c3c(NCCc4ccc(OC)c(OC)c4)ncnc32)cc1` stands inactive: -0.0032%; under `NS(=O)(=O)c1cc(C(=O)O)cc(N2CCCC2)c1Oc1ccccc1`, inactive: -10%; under `COc1ccc(CNC(=O)CN(c2ccc(OC)cc2)S(=O)(=O)c2c(C)[nH]c(=O)[nH]c2=O)cc1`, inactive: -10.1%. For the molecule `O=C(CC1(O)C(=O)N(Cc2ccccc2)c2ccc(Br)cc21)c1ccccc1` (centres undefined), the “activation” value was inactive: -6.27%. To `O=C(Cc1ccccc1F)N1CCC(c2nc3c(nnn3Cc3cccc(Cl)c3)c(=O)[nH]2)CC1` belongs inactive: -0.837%; to `Cc1cc(C)cc(OCCn2c(CCNC(=O)C3CCCCC3)nc3ccccc32)c1`, inactive: -18.6%; to `Cc1ccc(-n2c(-c3ccco3)nc3c(cnn3-c3ccc(C)cc3)c2=O)cc1`, inactive: 0.59%. To `O=C(NCCCCc1ccccc1)c1nn(-c2ccccc2)nc1CO` belongs inactive: 1%. Under `Cn1c(=O)oc2cc(S(=O)(=O)N3CCCC(C(=O)N4CCN(c5cccc(Cl)c5)CC4)C3)ccc21` (centres undefined) stands inactive: -5.28%; under `CC1=C(C(=O)OCC2CCCCC2)C(c2cccc(F)c2F)CC(=O)N1` (centres undefined), inactive: -11.6%; under `COc1ccc(NC(=O)Cn2nnc(C(=O)Nc3ccc(C)c(F)c3)c2N)cc1Cl`, inactive: -10.4%. On to `CCOc1ccc(NC(=O)CC2C(=O)N(c3ccc(C)cc3)C(=O)N2Cc2ccc(OC)cc2)cc1` (centres undefined), for which the “activation” value was inactive: -12.7%. To `CCC(=O)N1CCc2cc(Br)cc(S(=O)(=O)N(CC)Cc3ccccc3)c21` belongs inactive: -12.3%; to `COc1ccc(OC)c(NC(=O)N(C)CCc2c(C)nn(C)c2C)c1`, inactive: -10.4%; to `CCOc1ccc(NC(=O)c2c(NC(=O)c3ccccc3Br)sc3c2CCC(C)C3)cc1` (centres undefined), inactive: -18.7%. To `CCOc1ccc(S(=O)(=O)NCC(c2ccc(N(C)C)cc2)N2CCc3ccccc32)cc1` (centres undefined) belongs inactive: 12%. To `CCCCN(C)S(=O)(=O)c1cc(-c2cc(C)no2)ccc1C` belongs inactive: -26.8%; to `COC(=O)CSc1ccc2nnc(CCNS(=O)(=O)c3ccccc3)n2n1`, inactive: 0.71%; to `Cc1cc(-c2nc3ncccc3o2)ccc1NC(=O)c1ccc(Cl)cc1`, inactive: 1.73%. `Cc1ccc(-c2nc3ncccc3o2)cc1NC(=O)c1ccc(-c2cccc(Cl)c2C)o1`: the “activation” value was inactive: -2.46%. To `CCc1cccc(C)c1NC(=O)c1cn2c3c(ccc(Cl)c3c1=O)OC(C)C2` (centres undefined) belongs inactive: -21.3%; to `Cc1cccc(N2CCN(c3ncnc4onc(C)c34)CC2C)c1` (centres undefined), inactive: -18%. Under `Cc1nc(-c2cccc(F)c2)sc1CCNC(=O)C(=O)Nc1ccc2c(c1)OCO2` stands inactive: -2.83%; under `O=C(Nc1ccc(F)c(Cl)c1)N1CCC(CN2CCc3ccccc3C2)CC1`, inactive: -10.6%. To `CC(C)(C(=O)O)c1ccc(C(O)CCCN2CCC(C(O)(c3ccccc3)c3ccccc3)CC2)cc1` (centres undefined) belongs inactive: -14.1%. As for `Cc1cccc(-c2nc3ccccc3n3c(-c4ccccc4)c4c(=O)n(C)c(=O)n(C)c4c23)c1`, the “activation” value was inactive: -11.8%. For the molecule `COc1ccccc1-c1cc2nc(C)c(CCC(=O)Nc3cc(C)ccc3C)c(C)n2n1`, the “activation” value was inactive: -7.41%.

`CCc1cccc(NC(=O)c2ccc(CNS(=O)(=O)c3ccc4c(c3)C(C)(C)C(=O)N4C)cc2)c1`: the “activation” value was inactive: -4.5%. Under `Cc1ccc(-n2ncc3c(NCC(C)C)ncnc32)c(C)c1` stands inactive: -6.49%; under `CCc1ccc(NC(=O)Cn2cnc3sc(C)c(S(=O)(=O)N4CCN(c5ccccc5OC)CC4)c3c2=O)cc1`, inactive: -13.2%. For `Cc1cccc(CCNC(=O)C2CCN(c3nc4ccccc4nc3C(F)(F)F)CC2)c1`, the “activation” value is inactive: -17.6%. Under `CCC(C)NC(=O)CCc1c(C)nc2cc(-c3ccc(OC)cc3OC)nn2c1C` (centres undefined) stands inactive: -1.42%. To `O=C(Nc1ccc(C(=O)N2CCN(c3ccccc3)CC2)cc1)c1nsc2ccccc12` belongs inactive: -20.3%; to `CCOC(=O)c1cnc2ccc(Cl)cc2c1Nc1ccc(N2CCOCC2)cc1`, inactive: -17.3%. With `CCCN(CCC)CCNC(=O)C1CCN(c2nc3ccc(CC)cc3s2)CC1`, the “activation” value was inactive: -23.9%.

Take `O=C(CSc1nc2c(c(=O)[nH]1)CN(Cc1ccc3c(c1)OCO3)CC2)Nc1ccc(F)c(F)c1`: the “activation” value was inactive: -18.8%. To `Cc1oc(-c2ccccc2F)nc1CSc1nnc(C)n2c1cc1occc12` belongs inactive: -20.8%; to `COc1ccc(-n2nnc(-c3nc(-c4cccs4)no3)c2N)cc1`, inactive: -21.5%. To `Cc1ccc(C)c(NC(=O)Nc2cccc(-c3cn4cccnc4n3)c2)c1` belongs inactive: -3.47%. Under `COC(=O)c1ccccc1-n1cc2c(c1-c1cccc(C)c1)c(=O)n(C)c(=O)n2C` stands inactive: -23.6%. For `CCc1ccccc1NC(=O)C(=O)NCCc1sc(-c2cccc(F)c2)nc1C`, the “activation” value is inactive: -12.3%. Under `Cc1ccc(S(=O)(=O)N2CCC(n3c(C)nc4cccnc43)CC2)c(C)c1` stands inactive: -15.6%. Turning to `CCOc1ccc(CCNC(=O)c2cc3sc(CC)cc3n2C)cc1OCC`, the “activation” value is inactive: -23.7%. To `Cc1ccc(S(=O)(=O)c2cn(Cc3ccc(F)cc3)c3cc(N4CCCC4)c(F)cc3c2=O)cc1` belongs inactive: -4.67%; to `Cc1[nH]c2ccccc2c1SCCNC(=O)c1ccccc1F`, inactive: -35.7%. Under `CCOC(=O)C1CCCN(C(=O)c2[nH]c3ccccc3c2Sc2ccc(Cl)cc2)C1` (centres undefined) stands inactive: 10.1%. To `CC(C)Oc1ccc(CNC(=O)Cn2ncn3nc(-c4cccs4)cc3c2=O)cc1` belongs inactive: -14.5%.

(Values after PubChem BioAssay AID1159614 (National Center for Advancing Translational Sciences (NCATS), 2016).)
